Data on 53 compounds can be found in PubChem BioAssay AID1346428 (National Center for Advancing Translational Sciences (NCATS), 2018).

Hit rate of the full screen: of about 48,000 compounds, about 1,200 (2.5%) were called active. Roughly 2% stayed inconclusive and do not appear here.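 How the source made its calls: active means activation of at least 60% and not above a set upper limit (about 1 call in 100 departs from these limits); inconclusive means activation of 40% to 60%, or above that upper limit; inactive means activation under 40%.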 The list shows a part of the results.

The assay has as its target Probable G-protein coupled receptor 32 (Homo sapiens) (UniProt O75388). The assay can be described thus: qHTS for Agonists of Human Resolvin D1 Receptor DRV1. Further: 0% is about no effect. The note with it: CHO-K1 GPR32 beta-arrestin PathHunter luminescence, 90 min; at 76.9 µM; hits give high values; zero percent set by DMSO-only wells. In a few lines: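 Luminescent readout of beta-Gal complementation quantifies ligand-induced beta-arrestin association with GPR32 in CHO-K1 cells; 90 min compound incubation at 37 °C, detection 1 h at room temperature.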
Sequence of UniProt O75388 (O75388 whole entry, looked up): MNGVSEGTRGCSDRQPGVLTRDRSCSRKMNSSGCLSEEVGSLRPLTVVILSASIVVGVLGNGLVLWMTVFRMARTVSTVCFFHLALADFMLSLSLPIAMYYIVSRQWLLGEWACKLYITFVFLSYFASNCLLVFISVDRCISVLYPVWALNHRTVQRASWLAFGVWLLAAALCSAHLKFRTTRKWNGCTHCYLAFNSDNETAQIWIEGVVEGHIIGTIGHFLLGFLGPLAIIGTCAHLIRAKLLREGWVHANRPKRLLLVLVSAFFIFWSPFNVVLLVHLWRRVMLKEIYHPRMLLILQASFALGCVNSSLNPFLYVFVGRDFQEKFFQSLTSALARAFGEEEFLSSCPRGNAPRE
Background: Quantitative high-throughput screening tests each substance at several concentrations.
For `CCCN(CCC)S(=O)(=O)c1ccc(C(=O)Nc2cccc(-c3nc4ccccc4[nH]3)c2)cc1`, the activation is inactive: -13%.

On to `CC(=O)c1ccc(NC(=O)CN(C)S(=O)(=O)c2cc3c(cc2Cl)NC(=O)CO3)cc1`, for which the activation was inactive: -2.87%.

Regarding `Nc1c(-c2nc(-c3ccccc3)no2)nnn1CC(=O)Nc1cccc(F)c1`, the activation is inactive: -0.865%.

Regarding `CCOc1cc(-c2ccc(OC(=O)c3ccc(C)cc3)c(OC)c2)cc(=O)c2c(C)oc(C)c12`, the activation was inactive: -19%.

Consider `CCN(CC)CCN(C(=O)c1ccco1)c1nc2cc(C)cc(C)c2s1`, for which the activation is inactive: 20.3%.

Turning to `Cc1ccc(NCc2cccn2-c2nnc(N3CCC(C(=O)NCCC(C)C)CC3)s2)cc1`, the activation was inactive: -11%.

With `N#Cc1c(-n2ncnc2-c2ccccc2C(F)(F)F)sc2c1CCCCC2`, the activation is inactive: -12.6%.

On to `CCOC(=O)c1ccc(Nc2c(-c3cccc(O)c3)nc3nc[nH]n23)cc1`, for which the activation was inactive: -11.9%.

Regarding `COc1cc(NC(=O)CNS(=O)(=O)c2cccs2)cc(OC)c1OC`, the activation was inactive: -3.08%.

With `COc1cccc(C2=NS(=O)(=O)N(C)C(C(=O)Nc3ccccc3SC)=C2)c1`, the activation is inactive: -24.4%.

As to `CCOc1ccc(S(=O)(=O)NCCc2csc3nc(-c4ccc(F)cc4)nn23)cc1`, the activation is inactive: 37.7%.

Consider `Cc1ccc(C)c(Cn2c(=O)n(Cc3ccccc3)c(=O)c3c2c2cc(C)ccc2n3C)c1`, for which the activation was inactive: 20.1%.

As to `CC1CCC(NC(=O)c2ccc(CS(=O)(=O)c3cccc(C(F)(F)F)c3)o2)CC1` (stereo not drawn), the activation is inactive: 13.1%.

With `O=C(NCc1cccs1)c1ccc(CSc2nc3ccncc3n2Cc2ccccc2)cc1`, the activation is inactive: 0.485%.

Regarding `Cc1ccc(Cl)cc1N1CCN(CCCNC(=O)C2COc3ccccc3C2)CC1` (stereo not drawn), the activation is inactive: -2.48%.

Turning to `CCOC(=O)c1ccc(NC(=O)Cn2c(=O)cc(C(F)(F)F)c3c(C)nn(C)c32)cc1`, the activation is inactive: -11.2%.

In the case of `Cc1ccc(C(=O)Nc2ccc(S(=O)(=O)Nc3onc(C)c3C)cc2)cc1`, the activation is inactive: -4.89%.

Turning to `COc1ccc(CNC(=O)Cn2c(=O)cc(C)c3c(C)nn(-c4cccc(Cl)c4C)c32)cc1`, the activation is inactive: 0.105%.

`COc1ccc(-c2cc(C(=O)Nc3cccc(O)c3)on2)cc1OC`: the activation was inactive: -0.959%.

On to `Fc1ccc(CSc2nc(NCc3ccccc3)c3ccccc3n2)cc1`, for which the activation is inactive: -35.9%.

Regarding `O=C(Nc1ccc(Cl)cc1C(F)(F)F)c1cc(S(=O)(=O)N2CCOCC2)ccc1F`, the activation was inactive: -9.94%.

With `CCOc1ccc(S(=O)(=O)n2nc(C)c(S(=O)(=O)N3CCCCC3)c2C)cc1`, the activation was inactive: 1.47%.

In the case of `CC(C)(C)OC(=O)N1CCC(c2c(C(=O)NCc3ccco3)cnn2-c2ccccc2Cl)CC1`, the activation was inactive: -16.3%.

As for `Cc1nn(CCCC(=O)NCc2ccccc2)c(=O)c2cc3sccc3n12`, the activation is inactive: -3.13%.

Regarding `CCCC(=O)n1nc(-c2cccnc2)nc1NCc1ccc(OC)cc1`, the activation was inactive: -25.6%.

With `COc1ccc(C(=O)Nc2cc3c(cc2N2CCCC2)n(C)c(=O)c(=O)n3C)cc1OC`, the activation was inactive: -5.4%.

Turning to `N/C(=N\N=C\c1ccc(Cl)cc1)N/N=C/c1ccc(Cl)cc1`, the activation was inactive: 8.65%.

Consider `CC(=O)c1cc(-c2ccccc2)n(CCC(=O)NC(C)c2ccccc2)c1C` (stereo not drawn), for which the activation was inactive: -16.8%.

Take `COC(=O)c1ccccc1NS(=O)(=O)c1ccc2c(c1)CCCN2C(C)=O`: the activation is inactive: 6.34%.

With `CCOc1cc(C(=O)Nc2ccc(-c3nc4ccccc4s3)cc2Cl)cc(OCC)c1OCC`, the activation was inactive: -4.46%.

Turning to `Cc1cccc(C)c1NC(=O)Cn1c(=O)n(Cc2ccc3c(c2)OCO3)c(=O)c2oc3ccccc3c21`, the activation was inactive: -18.6%.

With `O=C(Nc1ccc(Br)cc1)C(Cc1ccccc1)NS(=O)(=O)c1cccc2nsnc12` (stereo not drawn), the activation is inactive: -19.7%.

Turning to `COc1ccccc1NC(=O)Cn1nc(-c2ccc(C)cc2)c2c(c1=O)CCCC2`, the activation was inactive: 29.6%.

On to `Fc1ccc(-n2ncc3c(NCCC4=CCCCC4)ncnc32)cc1`, for which the activation was inactive: 38.9%.

Take `COc1ccc(C(=O)Nc2cc(S(=O)(=O)c3ccc(Cl)cc3)c(O)c(C)c2C)cc1`: the activation is inactive: 12.6%.

Turning to `CCOc1ccc(OCC)c(NC(=O)C(NS(=O)(=O)c2cccs2)c2ccccc2)c1` (stereo not drawn), the activation is inactive: 20.8%.

In the case of `Cc1ccc(CNC(=O)c2c(C)oc3nc(C)nc(N4CCOCC4)c23)cc1`, the activation is inactive: -5.43%.

`CC(C)(C)c1ccc(C(=O)NCC(c2cccs2)S(=O)(=O)c2cccs2)cc1` (stereo not drawn): the activation was inactive: -7.61%.

Regarding `CCc1ccc(-n2nc3cc(C)c(NC(=O)c4cc(OC)cc(OC)c4)cc3n2)cc1`, the activation is inactive: -30.9%.

`Cc1ccc(NC(=O)CSc2nnc(-c3ccc(Br)cc3)o2)c(C)c1`: the activation is inactive: -12.3%.

For the compound `COc1ccc(NC(=O)Cn2nnc3sc4c(c3c2=O)CCCC4)cc1`, the activation is inactive: -11.6%.

With `CCOC(=O)Cn1c(=O)oc2cc(S(=O)(=O)N3CCC(C(=O)OCC)CC3)ccc21`, the activation was inactive: 1.58%.

Regarding `Cc1ccc(OCC(=O)Nc2ccc3nc(SCCOc4ccccc4)sc3c2)cc1`, the activation is inactive: 18.6%.

In the case of `Cc1ccc(NC(=O)CN2C(=O)COc3ccc(S(=O)(=O)Nc4ccccc4)cc32)c(C)c1`, the activation is inactive: -0.0904%.

Take `COc1ccc(CNC(=O)c2ccc3nc(C(C)C)oc3c2)cc1OC`: the activation was inactive: -19%.

For `Cc1cc(C)c(NC(=O)CSc2nc3ccncc3[nH]2)c(C)c1`, the activation was inactive: 11.5%.

In the case of `Cc1ccc(C2=NC(c3ccccc3)=Nc3ccc(Cl)cc3N2)cc1`, the activation was inactive: -18.5%.

Consider `CCc1ccc(NC(=O)CCc2nnc3n(C)c(=O)c4sccc4n23)cc1`, for which the activation is inactive: -3.25%.

Turning to `COCCCNC(=O)CSc1nc(-c2ccc(OC)c(OC)c2)[nH]c1-c1ccc(F)cc1`, the activation is inactive: -26.6%.

On to `Cc1cc(C)c2c(=O)cc(C(=O)NCc3ccc(S(N)(=O)=O)cc3)oc2c1`, for which the activation is inactive: -2.74%.

For the compound `COC(=O)c1cc2oc3ccccc3c2n1Cc1c(C)cc(C)cc1C`, the activation was inactive: -20.8%.

Turning to `Cc1cccc(NC(=O)C2CCCN(S(=O)(=O)c3ccc(Br)s3)C2)c1` (stereo not drawn), the activation was inactive: -15.1%.

Take `Cc1cc(C)cc(NC(=O)Cn2c(=O)n(Cc3ccco3)c(=O)c3oc4ccccc4c32)c1`: the activation was inactive: -14.1%.
